Laboratory results from PubChem BioAssay AID1259400 (National Center for Advancing Translational Sciences (NCATS), 2018).
Hit rate of the full screen: of about 350,000 compounds, about 2,100 (0.6%) were called active. The inconclusive results got no clear call from the source; some entries with a clear call stand among them for comparison.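 Rule for the calls: active = activity change of -60% or lower, but not beyond a set lower limit; inconclusive = change between -60% and -40%, or beyond the set limit; inactive = change above -40%.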

These molecules were tested against Relaxin receptor 1 (Homo sapiens) (UniProt Q9HBX9) (assay: qHTS Assay for Antagonists of the Relaxin Receptor RXFP1). Details: HEK293-RXFP1, relaxin-stimulated cAMP HTRF, 30 min; at 57.5 µM; active compounds read low.
% is set by controls: 0 for no effect and ±100 for the full control effect.

Chain of UniProt Q9HBX9 (Q9HBX9 whole entry, looked up): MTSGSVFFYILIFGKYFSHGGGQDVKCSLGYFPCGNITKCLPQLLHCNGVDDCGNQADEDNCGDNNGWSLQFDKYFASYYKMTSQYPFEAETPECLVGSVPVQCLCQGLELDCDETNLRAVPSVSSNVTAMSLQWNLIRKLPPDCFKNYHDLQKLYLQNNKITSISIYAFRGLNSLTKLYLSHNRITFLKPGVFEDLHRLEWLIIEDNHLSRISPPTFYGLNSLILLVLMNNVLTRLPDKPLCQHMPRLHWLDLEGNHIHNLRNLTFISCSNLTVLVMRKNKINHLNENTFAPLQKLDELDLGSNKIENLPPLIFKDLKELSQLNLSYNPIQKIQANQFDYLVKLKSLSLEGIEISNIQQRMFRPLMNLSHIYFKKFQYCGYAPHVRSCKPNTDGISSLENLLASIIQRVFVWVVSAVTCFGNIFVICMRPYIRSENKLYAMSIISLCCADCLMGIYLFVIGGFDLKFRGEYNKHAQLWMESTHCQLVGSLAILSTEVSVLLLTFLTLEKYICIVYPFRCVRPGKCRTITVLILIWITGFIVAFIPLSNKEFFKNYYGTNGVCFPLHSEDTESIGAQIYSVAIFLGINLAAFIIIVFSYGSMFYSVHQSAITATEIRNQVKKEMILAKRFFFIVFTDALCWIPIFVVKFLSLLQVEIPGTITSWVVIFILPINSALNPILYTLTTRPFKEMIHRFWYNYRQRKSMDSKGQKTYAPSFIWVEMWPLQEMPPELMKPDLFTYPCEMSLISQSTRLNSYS

| SMILES | activity change, negative = inhibition |
| --- | --- |
| CCOc1cc(C#N)c(NC(=O)Cn2nnc(-c3ccc(C)cc3)n2)cc1OCC | inactive: -4.49% |
| COC(=O)c1ccc2nc(NC(=O)C(C)(C)C)sc2c1 | active: -84.5% |
| CCCCN1C(=O)C(O)(CC(=O)c2ccc(C(C)(C)C)cc2)c2ccccc21 (stereo unspecified) | inconclusive: -41% |
| OCc1ccccc1SSc1ccccc1CO | active: -64.6% |
| Cc1ccc(S(=O)(=O)NCC(=O)OCc2ccccc2Br)cc1 | inconclusive: -41.7% |
| CCOC(=O)C(NC(C)=O)C(=O)Nc1ccc(C)cc1C (stereo unspecified) | inconclusive: -52.2% |
| NC(=O)c1nc(Nc2ccccc2)sc1NC(=O)c1ccccc1Br | inconclusive: -58.2% |
| Cc1cccn2c(CNCC3(c4ccccc4)CCCC3)c(C(=O)N3CCOCC3)nc12 | inconclusive: -47.7% |
| CC(=O)N1CCN(C(=O)c2cccc(S(=O)(=O)N3c4ccccc4CC3C)c2)CC1 (stereo unspecified) | inconclusive: -45.1% |
| COc1ccc(N(Cc2cccs2)C(=O)c2ccc(OCC(C)C)cc2)cc1 | inconclusive: -48.2% |
| Cc1c(C)n(Cc2ccccc2)c2ccc(C(=O)OCCCN(C)C)cc12 | inconclusive: -45.3% |
| CCN(CC)CCCN1C(=O)C(O)=C(C(=O)c2cc3ccccc3o2)C1c1ccccn1 (stereo unspecified) | inactive: 0.769% |
| Cc1cccc(CS(=O)(=O)c2ncc(Cl)c(C(=O)Nc3c(C)cccc3C)n2)c1 | active: -96.2% |
| Cc1ccc(NC(=O)C2CCCN(S(=O)(=O)c3cccc4cccnc34)C2)cc1 (stereo unspecified) | inconclusive: -43.7% |
| CCN1CCN(CCNC(=O)c2ccc3c(c2)N(Cc2ccc(F)cc2)C(=O)/C(=C/c2ccccc2)S3)CC1 | inconclusive: -59.3% |
| O=C1c2[nH]nc(-c3ccccc3O)c2C(c2cccc(OCc3ccccc3)c2)N1CCO (stereo unspecified) | inconclusive: -43.1% |
| CC(C)(O)C#Cc1ccc(C(=O)N2CCCC(CCC(=O)NCc3ccccc3F)C2)cc1 (stereo unspecified) | inconclusive: -40% |
| Cc1ccc(-n2nc3c(=O)n(CC(=O)NCCC4=CCCCC4)nc(C)c3c2C)cc1 | active: -102% |
| COc1ccc(CNC(=O)CCCn2nc(C)c3c(C)n(-c4ccccc4)nc3c2=O)cc1 | inconclusive: -42.1% |

| SMILES | activity change, negative = inhibition |
| --- | --- |
| O=C(NCCc1ccccc1)c1noc2c1CCCCC2 | inactive: 7.34% |
| O=C(CCCN1CCC(C(=O)c2ccc(F)cc2)CC1)c1ccc(F)cc1 | inactive: -2.14% |
| CC(=O)N(c1ccc2oc(=O)sc2c1)S(=O)(=O)c1ccccc1 | inactive: -11.6% |
| N#C/C(=C(/O)CCl)c1nc2ccccc2[nH]1 | inconclusive: -54.7% |
| COc1cc(C2c3c(-c4ccccc4O)n[nH]c3C(=O)N2Cc2ccco2)ccc1OCC(C)C (stereo unspecified) | active: -67.9% |
| N#Cc1c(SCC(=O)Nc2cccc(C(F)(F)F)c2)sc2c(O)cc(=O)[nH]c12 | inconclusive: -42.4% |
| CC(C)(C)c1csc(NC(=O)Nc2ccccc2)n1 | inconclusive: -46.9% |
| CCOC(=O)CN1N=C(/C=C/c2ccc(C(C)C)cc2)CCC1=O | inconclusive: -45.6% |
| COc1ccc(/C(C)=N/NC(=S)NCCc2ccccc2)c(O)c1 | active: -62.5% |
| Cc1c(/C=N/Nc2ccc(F)cc2)c(O)n(C)c(=O)c1C#N | inactive: -1.13% |
| Cc1ccc(S(=O)(=O)N(CC(=O)Nc2ccccc2C(=O)O)c2ccc(Cl)cc2)cc1 | active: -76.3% |
| CCCCn1c(N)c(N(CC(C)C)C(=O)Cn2c(=O)oc3ccccc32)c(=O)[nH]c1=O | inconclusive: -41.9% |
| CCN(Cc1ccccc1)S(=O)(=O)c1ccc2c(c1)NC(=O)CS2 | active: -72.4% |
| CC(C)Cn1c(=O)c2ccccc2n2c(CCC(=O)Nc3ccc(F)cc3)nnc12 | inactive: -4.27% |
| CCCN(CCC)C(=O)c1nn(C)c2c1CSc1ccc(C)cc1-2 | inactive: -8.93% |
| Cc1nc(NCc2ccco2)c2c3c(sc2n1)CCC3 | inactive: 4.08% |
| Cc1ccccc1C(=O)Nc1nnc(-c2ccco2)s1 | inconclusive: -57.3% |
| O=C(Nc1nc2c(F)cccc2s1)c1ccc([N+](=O)[O-])o1 | inactive: -7.19% |
| O=C(Nc1cccc([N+](=O)[O-])c1)c1cc2ccccc2cc1O | active: -69.5% |

| SMILES | activity change, negative = inhibition |
| --- | --- |
| COC(=O)c1sc(-c2ccccc2)cc1NC(C)=O | inactive: 8.79% |
| Cc1ccccc1CS(=O)(=O)Cc1ccc(C(=O)NCCc2ccc(Cl)cc2)o1 | active: -96.2% |
| CN(Cc1cnn(C)c1)C(=O)CC1C(=O)NCCN1Cc1cccc(Oc2ccccc2)c1 (stereo unspecified) | inactive: -5.78% |
| O=C(/C=C/Nc1ccccc1O)c1ccco1 | inactive: -24% |
| COc1cc2c(cc1OC)CN(C(=O)CN(C)S(=O)(=O)c1ccc(NC(C)=O)cc1)CC2 | inactive: 14% |
| Cc1cccc2c1-c1sc(C(=O)NCCCN3CCN(c4ccccc4F)CC3)cc1CO2 | inactive: -14.4% |
| COc1ccc(C(=O)c2cn[nH]c2-c2cc(C)ccc2O)cc1 | inactive: -3.5% |
| O=c1cc(-c2ccc(C3CCCCC3)cc2)[nH][nH]1 | inconclusive: -53.4% |
| COc1cccc(NC(=O)c2c(C)nn(-c3cccc(C)c3)c2-n2cccc2)c1 | inconclusive: -40.5% |
| CC(C)c1ccc(NC(=O)CSc2n[nH]c(=O)n2-c2ccc3c(c2)OCCO3)cc1 | inconclusive: -47.1% |
| COc1ccc(S(=O)(=O)Oc2ccc3cccc(N)c3c2)cc1 | inconclusive: -43.3% |
| O=c1[nH]c(C2CCN(S(=O)(=O)c3ccccc3)CC2)nc2c1nnn2Cc1cccc(Cl)c1 | inactive: 5.33% |
| O=C(COc1ccc(S(=O)(=O)N2CCc3ccccc32)cc1Cl)NCc1ccccn1 | inactive: 5.33% |
| CC(=NNC(=S)N1CCCCC1)c1ccccn1 | inconclusive: -42.6% |
| COc1cccc(CNC(=O)c2cc(S(=O)(=O)N3CCOCC3)cn2C)c1 | active: -82% |
| CN(C)CC(CCC(CN(C)C)C(=O)c1ccccc1)C(=O)c1ccccc1 (stereo unspecified) | active: -76.3% |
| C/C(=N\NC(N)=S)C12CC3CC(CC(C3)C1)C2 | inactive: -6.02% |
| Cc1cc(C)cc(NC(=O)CSc2nnc(-c3ccccc3C)o2)c1 | inactive: -10.3% |
